Patent US20220403048A1, “BINDING MOLECULES TO ARGINASE II [ARG2]” (Cancer Research Technology Limited, priority 2019, published 2022)

How the values were obtained:
[1] = target: T1, recombinant human trimeric ARG1 enzyme (Homo sapiens, UniProt P05089); test: Direct binding HTRF assay, human trimeric ARG1; details: purified scFv, FIG. 1B
T1 construct: Avi tag (N); His10 (after a GGG linker) (C); made in house; host or cells: E. coli BL21 (DE3)
T1 sequence (P05089 with tags, fused parts or gaps): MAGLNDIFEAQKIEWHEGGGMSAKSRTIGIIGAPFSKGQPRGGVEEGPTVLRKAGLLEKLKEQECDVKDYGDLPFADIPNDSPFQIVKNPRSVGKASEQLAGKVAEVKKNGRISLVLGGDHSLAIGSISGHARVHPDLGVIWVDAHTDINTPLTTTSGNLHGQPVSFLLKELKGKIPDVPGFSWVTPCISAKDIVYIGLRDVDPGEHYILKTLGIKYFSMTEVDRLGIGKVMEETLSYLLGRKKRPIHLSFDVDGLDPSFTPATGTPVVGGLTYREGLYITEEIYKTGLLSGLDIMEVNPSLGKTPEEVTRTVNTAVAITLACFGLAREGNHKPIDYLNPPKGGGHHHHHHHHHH

ARG2 = target: T2, ARG2 (Homo sapiens, UniProt P78540); test: T cell proliferation assay (BrdU, 96 hours) with exogenous ARG2, improved variant IgGs; format: cell-based; design: human ARG2 (aa23-354); His10 (C); made in house; host or cells: E. coli BL21 (DE3); details: In Presence of rhARG2, hIgG1
T2 sequence (P78540 23-354): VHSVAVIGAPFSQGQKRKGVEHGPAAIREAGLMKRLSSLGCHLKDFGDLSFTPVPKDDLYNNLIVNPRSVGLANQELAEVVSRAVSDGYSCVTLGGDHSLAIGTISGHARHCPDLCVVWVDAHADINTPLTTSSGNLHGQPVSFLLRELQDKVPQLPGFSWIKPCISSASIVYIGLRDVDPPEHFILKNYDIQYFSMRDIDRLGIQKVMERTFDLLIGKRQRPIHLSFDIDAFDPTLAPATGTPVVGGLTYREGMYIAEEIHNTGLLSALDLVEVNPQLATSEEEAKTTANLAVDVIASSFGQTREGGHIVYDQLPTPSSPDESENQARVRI
Experimental: This assay served to provide evidence of improved functional efficacy for each affinity-matured antibody in comparison to the parent IgG, C0020187 (FIG. 12).
Lead optimisation clones were tested to an endpoint treatment time of 96 hours and the BrdU Cell Proliferation Kit (Roche, France; Cat: 11647229001) was used according to the manufacturer's instructions. R347 was used as the irrelevant control. All clones tested n=2.
Leukocyte cones underwent Ficoll Plaque (GE, Sweden; Cat: 17-1440-02) gradient separation, PBMC's were extracted and pan T cell population isolated by negative selection using the Human T Cell Enrichment Kit (Stemcell Technologies, France; Cat: 19051) according to the manufacturer's instructions.
40000 cells/well were seeded in complete growth media (RMPI 1640, 5% Human Serum Albumin) into a 96 well clear TC treated microplate (Greiner-Bio One, Germany; Cat: 655180). T cells were activated by the addition of ImmunoCult CD3/CD28 (Stemcell Technologies, France; Cat: 10971) at a dilution of 1:40 directly into wells and the plate incubated 37° C., 5% CO2 for 45 minutes.
To determine EC50's of test antibodies, a dilution series was created in sterile TBS/NaCl Buffer at 10× the final assay concentration added to the assay plate containing cells. Plate was incubated for 30 minutes at 37° C., 5% CO2.
ARG2 was added to relevant wells of the plate at a final concentration of 15 μg/ml. The equivalent volume of ARG2 vehicle and test antibody vehicle was added to relevant control wells. The total volume in each well was 200 μl. Cells were treated with test antibodies for a total of 96 hours at 37° C., 5% CO2. Antibodies were tested alongside C0020187 (parent IgG) as a positive control and R347 (irrelevant isotype control antibody) as a negative control.
Assessment of T cell proliferation was performed using the BrdU Cell Proliferation ELISA Kit (Roche, Germany; Cat: 000000011647229001). BrdU labelling reagent was added after 78 hours of antibody treatment and the plate further incubated for 18 hours at 37° C., 5% CO2. The remainder of the assay was performed according to the manufacturer's instructions.
Calculated data was expressed as % of control (Equation 3) and graphical plots were constructed using a four parameter fit and EC50's determined using model 205 in XLFit (IDBS, UK).
All test sample data was corrected for background (mean of no cell control)
% Control=100*((Test Sample−Mean Positive Control)/(Mean Negative Control−Mean Positive Control)) Equation 3:
Mean Positive Control=T Cells in absence of ARG2
Mean Negative Control=T Cells in presence of ARG2
This assay served to provide evidence of improved functional efficacy for each affinity-matured antibody in comparison to the parent IgG, C0020187 (FIG. 14, Table 19). R347 was used as the irrelevant control. […]

binding to biotinylated recombinant human trimeric ARG1 enzyme [1]: no binding
EC50 (ARG2; 96 hours): 1070 nM
Maximum % Proliferation (ARG2; 96 hours): 68%
EC50 (ARG2; top conc 2 μM, n=2): > 2000 nM
Maximum % Proliferation (ARG2; top conc 2 μM, n=2): 61%
B1: C0020187: anti-ARG2 antibody, parent lead isolation clone, VH SEQ ID NO: 12, VL SEQ ID NO: 17 (antibody, listed as Homo sapiens, V domains shown)
VH: [about 100 residues not given here]LRADLGLYMDLWGRGTLVTVSS
VL: QSVLTQPPSVSAAPGQKVTISCSGSSSNIGNHYVSWYQQLPGTAPKLLIYDNSERPSGIPDRFSGSKSGTSATLGITGLQTGDEADYYCGTWDSSLSALVFGGGTKLTVL
modifications: C0020187
